Measurements reported in ChEMBL document CHEMBL4888484, “Replenishing the malaria drug discovery pipeline: Screening and hit evaluation of the MMV Hit Generation Library 1 (HGL1) against asexual blood stage Plasmodium falciparum ,using a nano luciferase reporter read-out” (2022).
Among all 4,800 compounds or so, about 420 (8.8%) showed an effect of 50% or more. The list shows a part of the results.

test system: Plasmodium falciparum; test: Confirmatory screen in NF54 nanoGlo assay, in single point, at 2uM, 72h; format: functional, Erythrocyte; settings: timepoint 72 hour

First: Cc1ccccc1OCc1nc2c3c(ncn2n1)Oc1cc(O)ccc1[C@@H]3c1ccccc1
Second: CC[n+]1c(/C=C/N(C)c2ccccc2)oc2ccc(-c3ccccc3)cc21
The “% Inhibition” value of the first is lower: 20% for the first, 89% for the second.

Going from Cc1[nH]ncc1CCCNCc1cscn1 to O=C(CCCc1nccs1)NCc1cc(Cl)cc2c1OCC2, the “% Inhibition” value falls from 2% to -8%.

Going from N#Cc1c(-c2ccccc2)cc(-c2ccccc2)n(C(=O)c2ccc(F)cc2)c1=O to Cc1ccc(S(=O)(=O)/N=[S@@](/c2ccccc2)c2ccccc2C)cc1, the “% Inhibition” value falls from 3% to -5%.

Compared with CCN(CC)CC(O)COc1c(Br)cc(C(C)(C)c2cc(Br)c(OCC(O)CN(CC)CC)c(Br)c2)cc1Br (configuration not stated), CCCC[C@H](CC)C(=O)Nc1c(C)cccc1CC is lower in “% Inhibition” value: 99% for the first, -9% for the second.

Going from Cc1ccc(C(N)C(C)S(C)(=O)=O)cc1 (configuration not stated) to CC[C@H](C)NS(=O)(=O)c1cccc(N)c1, the “% Inhibition” value rises from -7% to -4%.

First: C[C@@H](C(=O)Nc1ccc(Br)cn1)N1C(=O)CCC1=O
Second: CC(C)CCNC(=O)c1cnn2c3c(cnc12)CCCC3
The “% Inhibition” value of the first is lower: -16% for the first, -6% for the second.

Going from CC(=O)Nc1c(-c2ccc(C)cc2)c(C)nn1-c1ccc(C(=O)Nc2cc(C)ccn2)cc1 to Cc1ccc(-c2ccc(CN(CC(=O)NCC(=O)O)C(C)C)s2)cc1, the “% Inhibition” value falls from 49% to -4%.

Going from CC(C)(C)c1cccc(Oc2nn[nH]n2)c1 to CC(C)(C)[C@@H](O)CNC(=O)c1c(O)cccc1F, the “% Inhibition” value falls from 2% to -10%.

Going from Cc1ccc2c(c1)C1NC(=O)NC(C)(O2)C1C(=O)Nc1ccc(Cl)cc1 (configuration not stated) to Cc1cccc(NC(=O)Nc2cc(F)c3[nH]c(=O)ccc3c2)c1, the “% Inhibition” value falls from -3% to -4%.

Going from COc1ccc(C)c2sc(N(CCCn3ccnc3)C(=O)Cc3ccc(F)cc3)nc12 to O=C(Nc1ccc(Cn2ccnc2)cc1)c1cc2ccccc2cc1OC(F)F, the “% Inhibition” value falls from 79% to -4%.

Compared with CCOC(=O)c1ncn(C2CCCCC2)c1N, Cc1ccccc1C(=O)NCc1nn(C2CCCC2)c2c1COCC2 is lower in “% Inhibition” value: 1% for the first, -1% for the second.

Compared with c1cc(-c2nnc(-c3ccncc3)s2)ccn1, Cc1cc(-c2nc(C3(c4ccncc4)CCC3)no2)ccn1 is higher in “% Inhibition” value: -8% for the first, -3% for the second.

First: COc1ccc(-c2cc(-c3ccccc3)nc(N3CCC(C)CC3)n2)cc1
Second: Cc1nc(N2CCC(C)CC2)ncc1-c1cc(=O)[nH]c(NCc2ccccc2)n1
The “% Inhibition” value of the first is higher: 50% for the first, -15% for the second.

Compared with O=C(Cc1ncc(C(F)(F)F)cc1Cl)c1ccc(Cl)c(Cl)c1, CN(C)c1cccc(CNc2ccc(C(F)(F)F)nn2)n1 is lower in “% Inhibition” value: 3% for the first, 1% for the second.

First: CC[C@H]1Cn2c(C(=O)NC3CCCC3)cc3c(Cl)ccc(c32)O1
Second: Cc1ccc2c(c1)N(S(C)(=O)=O)CC[C@@H](C(=O)NC1CC1)O2
The “% Inhibition” value of the first is lower: -12% for the first, -10% for the second.

First: N#Cc1cc(S(=O)(=O)NCCN(C2CC2)S(=O)(=O)c2ccc(Cl)c(C#N)c2)ccc1Cl
Second: Cc1cccc(S(=O)(=O)c2cnc(N3CCC(Cc4ccccc4)CC3)nc2N)c1
The “% Inhibition” value of the first is higher: 75% for the first, -17% for the second.

Going from O=C1[C@H](c2cccnc2)N(CCCc2ccccc2)C(=O)CN1c1ccccc1 to CCn1c(=O)c(N2CCC(C(=O)NCCCc3ccccc3)CC2)nc2cccnc21, the “% Inhibition” value rises from -8% to -5%.

First: CCN1c2cc(C(=O)Nc3ccc(OC)cc3OC)ccc2C(=O)N2CCCC[C@H]21
Second: CCNC(=O)C1Cc2ccc(OC)cc2N2CCN(c3ccc(OC)cc3)CC12 (configuration not stated)
The “% Inhibition” value of the first is higher: 8% for the first, 2% for the second.

Going from Cc1cc(NC(=O)NC(C)C)c2[nH]c(C(=O)N3CCOCC3)c(-c3ccccc3)c2c1 to CC(C)N(C)CC1CCN(C(=O)c2cc(-c3ccccc3)c(N3CCOCC3)s2)CC1, the “% Inhibition” value falls from 3% to -4%.

Compared with Cc1cc(=O)n2ncc(C(=O)Nc3ccc(F)cc3F)c2[nH]1, Cc1cc(=O)n2ncc(C(=O)Nc3cc(F)ccc3C)c2[nH]1 is lower in “% Inhibition” value: 7% for the first, -18% for the second.

Going from CC1(C)C[C@@H](NC(=O)COc2ccc(CO)cc2)CCO1 to CC1(C)NC(=O)CC[C@@H]1NC1CC(c2cccc(F)c2)C1 (some centres not stated), the “% Inhibition” value rises from -1% to 5%.

Compared with Fc1cc(Cl)cnc1N1CCC2(CCOCC2)C1, CC1(CO)CCCC1NCc1cnc(N2CCOCC2)nc1 (configuration not stated) is higher in “% Inhibition” value: -2% for the first, 2% for the second.

First: C#CC[C@H](OC(=O)c1cccn1C)C1CC1
Second: C[C@H](NC(=O)N(Cc1ccccc1F)C1CCC1)c1cnn(C)c1
The “% Inhibition” value of the first is lower: -13% for the first, 1% for the second.

Going from C[C@H](C(=O)Nc1nc2c(ccc3ccccc32)s1)C1CCOCC1 to Cc1ccc(CNC(=O)[C@@H](C)C2CCOCC2)o1, the “% Inhibition” value rises from -10% to -2%.

First: NC1(c2noc([C@@H]3CCCO3)n2)CCCCCC1
Second: CC1([C@@](O)(C#CC[N+]2(C)CCCCC2)c2ccccc2)CCCC1
The “% Inhibition” value of the first is lower: 2% for the first, 50% for the second.

First: COc1ccc(C(=O)N2C[C@@H]3C[C@H]2C[C@@H]3NC(=O)c2ccccc2)cc1F
Second: COc1ccc(S(=O)(=O)N2CCN(C(=O)N(C)C)[C@@H]2c2ccccc2)cc1
The “% Inhibition” value of the first is higher: 4% for the first, 0% for the second.

First: CC1(C(=O)NCc2ccc(F)cc2F)CCN(C(=O)CC2CCCC2)CC1
Second: O=C(Cn1c(=O)n(-c2cc(F)cc(F)c2)c(=O)c2sccc21)NCc1ccc(F)cc1F
The “% Inhibition” value of the first is higher: 1% for the first, -4% for the second.

Going from O=S(=O)(c1ccccc1C(F)(F)F)N1CC[C@]2(CCN(c3cccnc3)C2)C1 to Nc1nc(N2CCC3(CC2)OCCO3)ncc1C(=O)Nc1ccccc1, the “% Inhibition” value falls from -2% to -11%.

Compared with CCCC(=O)Nc1cccc(C(=O)O)c1C, CCCC[C@H](CC)C(=O)Nc1ccccc1C is higher in “% Inhibition” value: -5% for the first, 7% for the second.

First: Cc1nn(C)cc1-c1nn(-c2nc(C3CC3)cc(C(F)(F)F)n2)c(-c2cn(C)nc2C)c1C
Second: c1ccc(Cn2ncc3cc(-c4nc(C5CC5)no4)cnc32)cc1
The “% Inhibition” value of the first is higher: 16% for the first, 3% for the second.

Going from COc1ccc(CCNC(=O)CCCC(=O)Nc2cccnc2)cc1OC to CC(C)NC(=O)Cn1ccnc1CCN1C(=O)c2ccccc2C1=O, the “% Inhibition” value falls from 3% to -3%.

Compared with N#CC1(C(=O)NC(C2CC2)C2CC2)CCCC1, O=C(c1nc(C2CC2)ncc1Br)N1CCC[C@H]1C1CCOCC1 is higher in “% Inhibition” value: -14% for the first, -1% for the second.

Going from Cc1ccnc(NC(=O)c2cc(C#N)oc2C)n1 to CO/N=C(\Nc1cc(C)ccc1C)c1nonc1N, the “% Inhibition” value rises from -2% to 6%.

First: CC(C)(C)OC(=O)N(c1ccc(F)cc1)S(C)(=O)=O
Second: CCC(=O)N1CCc2sc(S(=O)(=O)N3CCN(c4cc(C)ccc4C)CC3)cc2C1
The “% Inhibition” value of the first is lower: -7% for the first, 36% for the second.

Going from O=C(Nc1cnccn1)c1cccnc1OCC(F)F to CCCCN(CC)C(=O)[C@@H]1CCC(=O)N(CC(C)C)[C@H]1c1cccnc1, the “% Inhibition” value falls from -4% to -15%.

First: COCc1cc(=O)n(CC(=O)NCc2ccccc2Cl)c(N2CCCC2)n1
Second: CCCOc1cc(=O)c(C(=O)N2CCCC2)nn1-c1ccc(C)cc1
The “% Inhibition” value of the first is lower: -11% for the first, -3% for the second.

First: O=c1[nH]c2ccccc2nc1-c1cc(Br)ccc1NS(=O)(=O)c1cccc2nsnc12
Second: COc1ccc(Nc2nnc(/C=C/c3ccccc3)c(=O)n2N)cc1
The “% Inhibition” value of the first is lower: 0% for the first, 10% for the second.

First: Nc1ccc2c(NC3CCC(=O)NC3C3CC3)ncnc2n1 (configuration not stated)
Second: CCN1CCN(c2nc(O)c3c(n2)NC(=O)C[C@H]3c2cccc(F)c2)CC1
The “% Inhibition” value of the first is lower: -12% for the first, -11% for the second.

First: Cc1nn(C)c(C(=O)NCCCN2CCOCC2)c1Br
Second: Cc1oc2ncn(CCN3CCCC3)c(=O)c2c1C(=O)Nc1ccc(C#N)cc1
The “% Inhibition” value of the first is lower: -12% for the first, 34% for the second.

Compared with CCn1cc(Cl)c(C(=O)N2CCN(C(=O)c3ccco3)CC2)n1, C[C@H](NC(=O)c1ccco1)c1cc2c(cc1Br)OCCCO2 is higher in “% Inhibition” value: -11% for the first, 26% for the second.

First: Brc1cncnc1N1CCC[C@H](c2nnn[nH]2)C1
Second: CCCn1nnnc1Cn1ncc2ccccc2c1=O
The “% Inhibition” value of the first is lower: -15% for the first, 3% for the second.

First: C=CCC1(Nc2ccccc2)c2ccccc2-c2ccccc21
Second: Cc1ccc(NC(=O)Nc2cccc(-c3ccc(N4CCN(C)CC4)nn3)c2)cc1C
The “% Inhibition” value of the first is lower: -5% for the first, 10% for the second.

Going from Cn1ccc(C2=Nc3ccccc3NC(=O)C2)n1 to O=C1NC2(CCC2)C(=O)N1CCCCOc1ccccc1, the “% Inhibition” value falls from -4% to -15%.

COc1ccc([C@@H]2C(C#N)(C#N)C23C(=O)CC(C)(C)CC3=O)cc1 was tested, and the “% Inhibition” value was -9%.
